Reference: PubChem BioAssay (NCATS)
Several values for one entry are separate records, joined by “and”; a condition that tells them apart may be missing. Equal values may be shown once. Inconclusive results, whose numbers are uncertain, are shown with a selection of clear calls. A potency beside an inconclusive call is a rough fit, not a confirmed value. Activity calls are given as the source filed them. Calls follow the shape of the dose curve; as a rule, active = well fitted curve in the direction sought with a large enough effect; inconclusive = small, poorly fitted or top-dose-only effect, or another doubt; inactive = no such curve, though single readings can be large; an effect the other way counts as inactive or inconclusive.

Experiments:
[1] = Viability qHTS for spleen associated tyrosine kinase inhibitor (SYKi) naive MV4-11 cells (AID 1963823); settings: MV4-11 AML viability, CellTiter-Glo luminescence, 72 h; viability (% of control): at 45 µM (top of the series); also: nearly all actives have a fitted effect of over 40% in size
Procedure, shortened: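 CellTiter-Glo luminescence, 10 min room-temperature incubation, gave viability. Cells: naive MV4-11 (500/well), treated 72 hr at 37 C, 5% CO2.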

[2] = Cellular viability qHTS for adrenocortical cancer (ACC) cell line SW-13 (AID 1963989); settings: SW-13 ACC cells viability, CellTiter-Glo, 48 h; activity (max response): stronger effect = lower value; also: nearly all actives have a fitted effect of over 65% in size;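 as to activity (max response): cells grown in serum-free medium with ITS supplement; % is scaled to controls: 0 for no effect and ±100 for the full control effect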
Procedure, shortened: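 Viability was read as CellTiter-Glo luminescence after 48 h compound treatment (up to 46 uM final) of SW-13 cells grown serum-free; titration curves were fit with a four-parameter logistic model to give IC50 and efficacy.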
Potency is read from the fitted curve at half-maximal effect; tags tell the direction and shape of the fitted curve.

**Q.** Which results are given for `CNC(=O)c1cccc2cc(Oc3ccnc4cc(OCC5(N)CC5)c(OC)cc34)ccc12`?
**A.** Potency [1]: active: 13 µM; Potency [2]: active: 28.2 µM

**Q.** Which results are given for `Cc1c(C)n(Cc2ccccc2)c2ccc(C(=O)OCCN(C)C)cc12`?
**A.** Potency [1]: active: 11.9 µM; Potency [2]: inconclusive: 23.1 µM [cytotoxic, single point]

**Q.** What does the source list for `CN(C)CCCOc1ccc(-c2ccc3ncc4c(c3c2)n(C2CCOCC2)c(=O)n4C)cn1`?
**A.** Potency [1]: active: 1.15 µM; Potency [2]: inconclusive: 2.85 µM [cytotoxic, full curve]

**Q.** Which results are given for `C[C@H]1O[C@@H](O[C@H]2CC[C@@]3(C)[C@H](CC[C@@H]4[C@@H]3C[C@@H](O)[C@]3(C)[C@@H](C5=CC(=O)OC5)CC[C@]43O)C2)C[C@H](O)[C@@H]1O[C@H]1C[C@H](O)[C@H](O[C@H]2C[C@H](O)[C@H](O[C@@H]3O[C@H](CO)[C@@H](O)[C@H](O)[C@H]3O)[C@@H](C)O2)[C@@H](C)O1`?
**A.** Potency [1]: inconclusive: 0.106 µM [cytotoxic, full curve]; Potency [2]: active: 0.082 µM

**Q.** What does the source list for `Nc1ncnc(Nc2ccc(OCc3ccccc3)c(Cl)c2)c1/C=N/OCCN1CCOCC1`?
**A.** Potency [1]: active: 8.33 µM; Potency [2]: active: 17.8 µM

**Q.** Which results are given for `CCCCCCCCCCOCC(O)CN` (stereo not given)?
**A.** Potency [1]: active: 23.7 µM; Potency [2]: inconclusive: 18.4 µM [cytotoxic, single point]

**Q.** With `C=CCc1cccc(/C=N/NC(=O)CN2CCN(Cc3ccccc3)CC2)c1O` as the molecule, how does the Potency [1] read?
**A.** active: 7.42 µM

**Q.** What about the Potency [2] of the same molecule?
**A.** active: 8.91 µM

**Q.** For `CN1CCC[C@@H]1CCO[C@](C)(c1ccccc1)c1ccc(Cl)cc1`, which Potency [1] is on record?
**A.** inconclusive: 10.6 µM [cytotoxic, partial curve]

**Q.** What about the Potency [2] of the same molecule?
**A.** inconclusive: 23.1 µM [cytotoxic, single point]

**Q.** With `CN1CCN(C2CCC(n3cc(-c4ccc(Oc5ccccc5)cc4)c4c(N)ncnc43)CC2)CC1` (stereo not given) as the molecule, how does the Potency [1] read?
**A.** active: 23.1 nM and inconclusive: 66.1 nM [cytotoxic, full curve]

**Q.** What about the Potency [2] of the same molecule?
**A.** active: 1.58 µM

**Q.** Which results are given for `CC(C)(C)c1ccc(C(=O)CCCN2CCC(OC(c3ccccc3)c3ccccc3)CC2)cc1`?
**A.** Potency [1]: active: 13.3 µM; Potency [2]: active: 13 µM

**Q.** With `O=C1CC[C@@H](C(=O)O)N1` as the molecule, how does the Potency [1] read?
**A.** active: 0.0015 µM

**Q.** And the activity (max response) [2]?
**A.** inactive: -6.66%

**Q.** What does the source list for `CC(=O)OCC[N+](C)(C)C`?
**A.** Potency [1]: inactive; activity (max response) [2]: inactive: 10.9%

**Q.** What does the source list for `Cn1nccc1Nc1nccc(-c2cc3c(s2)C(C)(C)N(CCN2CCOCC2)C3=O)n1`?
**A.** Potency [1]: active: 3.72 µM; Potency [2]: inconclusive: 8.91 µM [cytotoxic, partial curve]

**Q.** Which results are given for `O=C(O)C[C@H](O)C[C@H](O)/C=C/c1c(C2CC2)nc2ccccc2c1-c1ccc(F)cc1`?
**A.** Potency [1]: active: 461 nM and active: 525 nM; Potency [2]: active: 3.16 µM

**Q.** For `CCOC(=O)C1=C(C)NC(C)=C(C(=O)OCC)C1c1ccccc1/C=C/C(=O)OC(C)(C)C`, which Potency [1] is on record?
**A.** active: 9.44 µM

**Q.** What about the Potency [2] of the same molecule?
**A.** active: 16.4 µM

**Q.** Which Potency [1] does the source give for `CCOC(=O)OC(C)OC1=C(C(=O)Nc2ccccn2)N(C)S(=O)(=O)c2ccccc21` (stereo not given) here?
**A.** inactive

**Q.** What about the activity (max response) [2] of the same molecule?
**A.** inactive: 1.88%

**Q.** What does the source list for `O=C(Nc1ccc(Oc2ccc(Cl)cc2)c(Cl)c1)c1cc(I)cc(I)c1O`?
**A.** Potency [1]: inactive; Potency [2]: inconclusive: 18.4 µM [cytotoxic, single point]

**Q.** Which Potency [1] does the source give for `Cn1cc(C2=C(c3cn(C)c4cc([N+](=O)[O-])ccc34)C(=O)NC2=O)c2ccccc21` here?
**A.** active: 0.296 µM

**Q.** What about the Potency [2] of the same molecule?
**A.** inconclusive: 0.141 µM [cytotoxic, full curve]

**Q.** For `C#Cc1cccc(Nc2ncnc3cc4c(cc23)OCCOCCOCCO4)c1`, which Potency [1] is on record?
**A.** inconclusive: 16.6 µM [cytotoxic, partial curve]

**Q.** What about the Potency [2] of the same molecule?
**A.** inconclusive: 17.8 µM [cytotoxic, partial curve]

**Q.** Which results are given for `c1cc(Nc2cc(C3CC3)[nH]n2)nc(Nc2ccc3nc[nH]c3c2)n1`?
**A.** Potency [1]: inconclusive: 0.0059 µM [cytotoxic, full curve]; Potency [2]: active: 0.224 µM

**Q.** For `CC(C)(C)CC(C)(C)c1ccc(O)c(Cc2ccc(Cl)cc2Cl)c1`, which Potency [1] is on record?
**A.** inconclusive: 11.9 µM [cytotoxic, partial curve]

**Q.** And the Potency [2]?
**A.** active: 16.4 µM

**Q.** For `CCCCCCCCCCCCCCCCOP(=O)([O-])OCC[N+](C)(C)C`, which Potency [1] is on record?
**A.** inconclusive: 29.9 µM [cytotoxic, single point]

**Q.** And the Potency [2]?
**A.** inconclusive: 18.4 µM [cytotoxic, partial curve]

**Q.** For `CCC1NC(=O)c2cc(S(N)(=O)=O)c(Cl)cc2N1` (stereo not given), which Potency [1] is on record?
**A.** inactive

**Q.** What about the activity (max response) [2] of the same molecule?
**A.** inactive: 11.8%

**Q.** Which Potency [1] does the source give for `CNC(=O)CCc1cc(-c2ccc(-c3ccc(C(F)(F)F)cc3)cc2)n(-c2ccc(N3CCNCC3)cc2)n1` here?
**A.** inconclusive: 2.95 µM [cytotoxic, full curve, poor fit]

**Q.** What about the Potency [2] of the same molecule?
**A.** active: 3.98 µM

**Q.** For `CC(C)(O)CC[C@@H](O)[C@](C)(O)[C@H]1CC[C@@]2(O)C3=CC(=O)[C@@H]4C[C@@H](O)[C@@H](O)C[C@]4(C)[C@H]3CC[C@]12C`, which Potency [1] is on record?
**A.** inactive

**Q.** And the activity (max response) [2]?
**A.** inactive: 9.11%
